Reference: PubChem BioAssay AID624171 (National Center for Advancing Translational Sciences (NCATS), 2012)
The whole screen tested about 410,000 compounds, of which about 1,200 (0.29%) were called active. The inconclusive results got no clear call from the source; some entries with a clear call stand among them for comparison. Calls follow the shape of the dose curve; as a rule, active = well fitted activation curve with a large enough effect; inconclusive = small, poorly fitted or top-dose-only effect; inactive = flat fitted curve, though single readings scatter. Potencies of inconclusive entries are doubtful fits and often do not repeat.

test: qHTS of Nrf2 Activators; settings: AREc32 ARE-luciferase reporter (MCF7-derived line), luminescence, 24 h; activation: at 46.1 µM (top of the series); also: nearly all actives have a fitted effect of over 65% in size; as to activation: % of control where 0% means no effect
Procedure, shortened: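 Luciferase luminescence (Steady-Glo, 30 min at room temperature) served as the read-out of ARE activation in AREc32 cells treated with compounds for 24 hr at 37 deg C.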
Potency is read from the fitted curve at half-maximal effect; tags tell the direction and shape of the fitted curve.

Potency, active:
CCN(C(=O)CN1C(=O)S/C(=C\c2cccc(Cl)c2)C1=O)C1CCS(=O)(=O)C1 (centres undefined) 11.2 µM
O=C(Nc1ccccc1)c1cc2ccccc2c(=O)s1 10 µM
Cc1nc(NC(=O)CCl)sc1C(=O)N(C)C 12.6 µM
Cc1ccc2c(c1)C(N1CCCC1=O)CC(c1ccco1)N2 (centres undefined) 11.2 µM
Cc1cc(C)c2c(N)c(C(=O)c3ccc(Br)cc3)oc2n1 1.78 µM
O=C(Nc1cc(-c2nc3ncccc3o2)ccc1Cl)c1cccs1 6.31 µM

Potency, inconclusive:
Cc1cc(NC(=O)CC(C)(C)C)nc2c1c(=O)oc1ccccc12 2.51 µM [activator, full curve, poor fit]
O=C1/C(=C/c2cccs2)SC(=S)N1C1CCS(=O)(=O)C1 (centres undefined) 12.6 µM [activator, partial curve]
CN1CCN(C(=O)CCN2C(=O)/C(=C/c3cccc(Br)c3)SC2=S)CC1 10 µM [activator, partial curve, poor fit]
Cn1nnnc1SCC(=O)Nc1cccc([N+](=O)[O-])c1 7.08 µM [activator, partial curve, poor fit]
COc1cccc2cc(S(=O)(=O)c3ccc(F)c(C)c3)c(=O)oc12 14.1 µM [activator, partial curve]
CC(=NNc1ccc2ccccc2n1)c1ccccc1O 3.16 µM [activator, full curve, poor fit]
Cc1cc(C)cc(N=Cc2ccc([N+](=O)[O-])s2)c1 22.4 µM [activator, single point]
O=C(/C=C\c1ccco1)c1ccc(NC(=O)c2ccco2)cc1 17.8 µM [activator, single point]
Cc1ccc(NC(=O)Cn2c(O)c(N=NC(=O)c3cc4ccccc4cc3O)c3ccccc32)cc1 20 µM [activator, single point]
CC1(C)c2cc(O)ccc2OC1N1CCOCC1 (centres undefined) 35.5 µM [activator, single point]
O=C(/C=C/c1ccc[nH]1)c1ccc(F)cc1 17.8 µM [activator, single point]
Cc1c(=O)n(OCc2ccccc2)c2ccccc2[n+]1[O-] 2.51 µM [activator, full curve, poor fit]
Cn1c2ccc(F)cc2c2nc3ccccc3nc21 3.16 µM [activator, partial curve, poor fit]
S=c1[nH]nc(-c2cccnc2)n1/N=C/C=C/c1ccco1 4.47 µM [activator, partial curve]
N#CC1=C(N)Oc2n[nH]c(-c3cccs3)c2C1c1ccoc1 (centres undefined) 25.1 µM [activator, single point]
CCOC(=O)c1cc2cc3ccccc3cc2oc1=O 22.4 µM [activator, single point]
O=S(=O)(Cc1cc(Cl)nc(-c2ccncc2)n1)c1ccccc1 17.8 µM [activator, partial curve, poor fit]
c1ccc(-c2cc(-c3ccccc3)n3ncnc3n2)cc1 2.82 µM [activator, partial curve, poor fit]
O=C(c1coc(=O)c(Br)c1)N1CCC(C(O)(c2ccccc2)c2ccccc2)CC1 25.1 µM [activator, single point]
COc1cccc(/C=C/C(=O)OCC(=O)N2CCCC2)c1OC 11.2 µM [activator, single point]
CCNc1ccc(Br)cc(C(=O)/C=C/c2ccc(Cl)cc2Cl)c1=O 17.8 µM [activator, single point]
O=C1C(C=Nc2ccccc2)=C(O)c2ccccc21 7.08 µM [activator, partial curve, poor fit]
CCSc1nnc(-c2c[nH]c3ccccc23)o1 22.4 µM [activator, single point]
Cc1nn(CC(=O)N2c3ccccc3NC(=O)C2(C)C)c(C)c1[N+](=O)[O-] 31.6 µM [activator, partial curve, poor fit]
Cc1ccc(NC2=C([N+](=O)[O-])CS(=O)(=O)C2)cc1 31.6 µM [activator, single point]
O=C(N/N=C/C(Cl)=C/c1ccccc1)c1ccccc1F 17.8 µM [activator, single point]
CCOc1cc(/C=C/c2ccc3cccc([N+](=O)[O-])c3n2)ccc1O 0.355 µM [activator, full curve, poor fit]
O=C1c2cccc3cccc(c23)C(=O)N1Cc1ccco1 10 µM [activator, partial curve, poor fit]
O=S(=O)(CCN1CCN(C(c2ccccc2)c2ccccc2)CC1)C(F)(F)F 31.6 µM [activator, single point]
O=c1[nH]c(/C=C/c2ccccn2)nc2ccccc12 14.1 µM [activator, single point]
N#CC(=C1C=CC(=NO)C(Cl)=C1)c1ccccc1 1.78 µM [activator, partial curve, poor fit]
CC(C)OC(=O)c1nn2c(C(F)(F)F)cc(-c3ccco3)nc2c1Cl 11.2 µM [activator, partial curve, poor fit]
O=C(NC(=S)Nc1ccc(Br)cn1)c1cccs1 2.82 µM [activator, full curve, poor fit]
COc1ccc(C(=O)c2cnc3ccc(C)cc3c2S(=O)(=O)c2ccccc2)cc1 15.8 µM [activator, single point]
Cc1sc2nc(N)sc2c1C 22.4 µM [activator, single point]
COC(=O)c1ccccc1SC1CC(=O)N(c2ccccc2)C1=O (centres undefined) 25.1 µM [activator, single point]
CCOC(=O)C[n+]1c(C)sc2ccc(OC)cc21 35.5 µM [activator, single point]
C=C1C(=O)C=C[C@]2(C)C[C@@H]3OC(=O)[C@](C)(O)[C@H]3C[C@@H]12 3.16 µM [activator, partial curve, poor fit]
CCN(CC)c1ccc(/C=C2\SC(=O)N(C(C)C)C2=O)o1 5.62 µM [activator, single point]
O=C(CN1C(=O)S/C(=C\c2ccccc2Cl)C1=O)NC1C=CS(=O)(=O)C1 (centres undefined) 3.16 µM [activator, full curve, poor fit]
COCCCNC(=O)c1ccc(-c2c(C)noc2C)c2ccoc12 12.6 µM [activator, single point]
CSc1ccc(C#N)cc1NC(=O)c1ccccc1 14.1 µM [activator, partial curve, poor fit]
COc1ccc(C(=O)/C=C/c2ccc(OCc3ccccc3)cc2)cc1CSCC(=O)O 28.2 µM [activator, single point]
CN(C(=O)c1ccco1)c1nc2c(s1)CCCC2 2.82 µM [activator, partial curve, poor fit]
N#Cc1c([N+](=O)[O-])cc([N+](=O)[O-])cc1S(=O)(=O)Cc1ccccc1 3.16 µM [activator, single point]
O=C1C=C(c2ccccc2)C[C@H](c2cccs2)[C@H]1n1nnc([N+](=O)[O-])n1 14.1 µM [activator, single point]
Cc1ccccc1N=C1NC(=O)/C(=C/c2cccnc2)S1 12.6 µM [activator, partial curve]

activation, inactive:
O=C(NC1C2CC3CC(C2)CC1C3)c1ccc2c(c1)OCO2 (centres undefined) 2.1%
CC1CN(C(=O)c2cc(S(=O)(=O)N3CCN(c4ccccc4)CC3)ccc2Cl)CC(C)O1 (centres undefined) -0.265%
CC(=O)c1ccc(NC(=O)Nc2ccc3snnc3c2)cc1 13.2%
COc1ccccc1Cn1c(C)c(C(=O)NCc2cccc(C)c2)sc1=O 0.135%
CSc1cccc(NC(=S)N(CCCN2CCCC2)Cc2cccn2Cc2ccc(Cl)cc2)c1 -2.85%
Cc1ccc2c(c1)C(=O)OC(C(=O)Nc1ccc(C(=O)O)cc1)C2 (centres undefined) 0.0908%
CC(=O)N1CCC2(CC1)OC(=O)C(C)=C2C(=O)NCc1ccccc1Cl -0.326%
CCOc1ccc(OCCOCCn2c(-c3ccc(Cl)cc3)nc3ccccc3c2=O)cc1 6.73%
COc1ccc(-c2nnc(SCC(=O)Nc3ncc(C)s3)n2-c2ccccc2)cc1OC -0.818%
COc1ccc(C(=O)c2cc([N+](=O)[O-])ccc2N2CCN(C)CC2)cc1 0.0937%
CCc1ccc(C(=O)c2cc3ccc(O)cc3oc2=O)cc1 4.68%
Cc1cc(C)nc(N/N=C/C2=C(O)CC(c3ccc(F)cc3)CC2=O)n1 (centres undefined) 0.406%
CC(=O)c1cccc(NC(=O)c2cc(S(=O)(=O)N3CCCCC3)ccc2N2CCOCC2)c1 3.53%
O=C(CCC1CCCN(C(=O)c2ccccc2Cl)C1)N1CCN(c2ccccn2)CC1 (centres undefined) -0.688%
c1ccc(-n2nnnc2SCc2ccccn2)cc1 1.57%
COc1ccc(NC(=O)c2oc3ccccc3c2NC(=O)c2ccco2)cc1 -0.486%
